The full ranking holds about 110,000 compounds; the median of “z-score” is about -0.1, and the highest 2% start at about 2. Some of the results follow. The source made the active and inactive calls.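 The calls were made as follows: active = z-score in the third read window above 3 or below -3; inactive = the rest.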

For the experiment, the target named is Metabotropic glutamate receptor 8 (Rattus norvegicus) (UniProt P70579). Put plainly: rat mGluR8 modulators via GIRK flux, primary screen, cell-based, thallium flux, HTS (AID 488969). The settings on record: HEK293 rat mGluR8, GIRK (G protein-gated inwardly rectifying potassium channel) thallium flux, FluoZin2; at 10 µM; stronger effect = higher value; submaximal glutamate (EC20) added with thallium.
Chain of UniProt P70579 (P70579 whole entry, looked up): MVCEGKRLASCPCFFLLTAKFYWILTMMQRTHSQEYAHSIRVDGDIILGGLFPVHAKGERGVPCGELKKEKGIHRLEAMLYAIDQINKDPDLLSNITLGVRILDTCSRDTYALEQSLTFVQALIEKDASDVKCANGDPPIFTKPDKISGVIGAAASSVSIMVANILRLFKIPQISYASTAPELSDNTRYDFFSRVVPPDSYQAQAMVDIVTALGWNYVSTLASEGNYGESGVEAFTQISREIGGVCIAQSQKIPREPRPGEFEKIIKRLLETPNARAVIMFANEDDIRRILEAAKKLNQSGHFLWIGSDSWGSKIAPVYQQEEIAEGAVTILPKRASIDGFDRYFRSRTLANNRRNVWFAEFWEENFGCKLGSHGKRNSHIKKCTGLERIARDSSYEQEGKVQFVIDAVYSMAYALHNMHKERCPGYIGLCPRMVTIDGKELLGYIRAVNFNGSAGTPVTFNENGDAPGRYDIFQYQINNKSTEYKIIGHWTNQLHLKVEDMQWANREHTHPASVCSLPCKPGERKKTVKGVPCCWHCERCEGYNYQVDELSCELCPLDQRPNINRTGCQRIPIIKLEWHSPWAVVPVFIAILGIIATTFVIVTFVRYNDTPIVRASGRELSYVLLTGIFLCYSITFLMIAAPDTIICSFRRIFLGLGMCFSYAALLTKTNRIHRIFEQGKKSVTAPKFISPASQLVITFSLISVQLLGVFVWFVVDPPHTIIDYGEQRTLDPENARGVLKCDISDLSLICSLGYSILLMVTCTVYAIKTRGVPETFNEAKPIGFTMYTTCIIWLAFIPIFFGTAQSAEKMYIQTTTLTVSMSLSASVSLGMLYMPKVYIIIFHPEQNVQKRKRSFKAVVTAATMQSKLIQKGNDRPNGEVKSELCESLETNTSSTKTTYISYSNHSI
For the molecule `CCOc1ccc(-c2nc(-c3cccnc3)no2)cc1OCC`, the z-score turned out to be 0.841.

For `COc1ccc(-c2nnn(CC(=O)N(Cc3cccs3)C(C)C(=O)NCCC(C)C)n2)cc1OC` (stereo unspecified), the z-score was -0.592.

For the molecule `CC(c1ccco1)N(C(=O)COc1ccc(Cl)cc1Cl)c1ccccn1` (stereo unspecified), the z-score is -0.193.

`O=C(/C=C/c1ccco1)NC(=S)Nc1ccc(N2CCCC2)cc1` showed a z-score of -0.0149.

For the molecule `COc1ccc(CCN2CC(C#N)=C3c4cc(OC)c(OC)cc4CCN3C2)cc1OC`, the z-score was -0.854.

`Cc1ccccc1CN1CCN(CC(=O)NCc2ccccc2)C1=O`: the z-score was 0.0216.

`CCOC(=O)c1c(C)sc2c1N(C(C)=O)c1cc(Cl)ccc1S2`: the z-score was -0.684.

Consider `COc1ccc(CCC(=O)NCc2cnn(C)c2)cc1`, for which the z-score is active: 3.37.

With `COc1ccc(-c2noc(CCC(=O)N3CCN(Cc4ccccc4)CC3)n2)cc1`, the z-score is -0.368.

Consider `CC1CCN(C(=O)CNS(=O)(=O)c2ccc(Br)s2)CC1`, for which the z-score came out at 0.784.

Consider `O=S(=O)(c1ccc(F)cc1)N(CCO)CC(O)Cn1c2ccccc2c2ccccc21` (stereo unspecified), for which the z-score was -0.131.

As to `CCc1nnc(NC(=O)CSc2ccc(-c3nc4ccccc4[nH]3)cn2)s1`, the z-score is -0.181.

`Cc1ccc(CNC(=O)c2ccc(C#CC(C)(C)O)s2)cc1` displayed a z-score of -0.323.

Take `CS(=O)(=O)N(Cc1ccccc1)c1ccc(C(=O)N2CCOCC2)cc1`: the z-score is 0.0222.

With `COc1ccc(C(=O)Nc2ccc(Cl)cc2C(=O)N2CCCC(C)C2)cc1` (stereo unspecified), the z-score was -0.264.

In turn, `C(#Cc1ccccc1)Cn1nnc2ccccc21` displayed a z-score of -0.98.

In the case of `CCCSc1oc(-c2ccco2)nc1S(=O)(=O)c1ccccc1`, the z-score was -0.357.

Take `CCOC(=O)C1CCN(Cc2coc3ccc(Cl)cc3c2=O)CC1`: the z-score was -0.298.

In turn, `Cc1ccccc1-n1c(C)cc(/C=C2/C(=N)N3C(c4ccccc4)=CSC3=NC2=O)c1C` showed a z-score of 0.264.

As for `O=C(O)Cn1cccc1C(=O)c1ccccc1`, the z-score was found to be 0.209.

Regarding `CC1CCC/C(=C\Nc2ccc3c(c2)OCO3)C1=O` (stereo unspecified), the z-score was -0.0151.

`O=C(CCC(=O)OCC(=O)c1ccc(Br)cc1)Nc1ccc(Br)c2cccnc12` registered a z-score of 0.139.

`C=CCN(C1CCCCC1)S(=O)(=O)c1ccc2c(c1)oc(=O)n2C` registered a z-score of -0.178.

`CCCCn1c(CCCNC(=O)CC)nc2ccccc21` gave a z-score of -0.571.

With `COc1cccc(NC(=O)c2nc3nc(C)cc(C(F)F)n3n2)c1`, the z-score is -0.116.

The molecule `CCOC(=O)N1CCC(N2Cc3cccc(C(=O)NCC4CCN(CC(C)C)C4)c3C2=O)CC1` (stereo unspecified) had a z-score of -0.12.

Consider `O=c1c2ccccc2n2c(-c3ccc(F)cc3)nnc2n1Cc1ccccc1`, for which the z-score is -0.162.

Molecule `CC(C)(C)c1n[nH]c(=S)n(/N=C/c2cccs2)c1=O` registered a z-score of 0.25.

Molecule `c1ccc(-n2cnnc2SCc2cn3cccnc3n2)cc1` displayed a z-score of -0.0444.

As to `COc1ccc(C)cc1N(C(=O)c1ccc(F)cc1)c1nc2ccccc2s1`, the z-score is 0.313.

As for `Cc1cc2c(c(SCC(=O)N(C)c3ccccc3)n1)C(=O)OC2`, the z-score is -0.234.

Values taken from PubChem BioAssay AID488969 (Vanderbilt High Throughput Screening Facility, 2010).
